# Test results: PubChem BioAssay AID1476 (National Center for Advancing Translational Sciences (NCATS), 2009)
# The campaign covered roughly 200,000 compounds. About 4,500 (2.2%) were called active. The shares of active, inactive and inconclusive entries below differ from those in the screen. The call rests on the fitted dose curve; in most records, active means well fitted inhibition curve with a large enough effect; inconclusive means small, poorly fitted or top-dose-only effect, or effect the other way; inactive means flat fitted curve, though single readings scatter. Where the call is inconclusive, the potency comes from a doubtful curve fit.
# Target: Cruzipain (Trypanosoma cruzi) (UniProt P25779)
# UniProt P25779, sequence (P25779 whole entry, looked up): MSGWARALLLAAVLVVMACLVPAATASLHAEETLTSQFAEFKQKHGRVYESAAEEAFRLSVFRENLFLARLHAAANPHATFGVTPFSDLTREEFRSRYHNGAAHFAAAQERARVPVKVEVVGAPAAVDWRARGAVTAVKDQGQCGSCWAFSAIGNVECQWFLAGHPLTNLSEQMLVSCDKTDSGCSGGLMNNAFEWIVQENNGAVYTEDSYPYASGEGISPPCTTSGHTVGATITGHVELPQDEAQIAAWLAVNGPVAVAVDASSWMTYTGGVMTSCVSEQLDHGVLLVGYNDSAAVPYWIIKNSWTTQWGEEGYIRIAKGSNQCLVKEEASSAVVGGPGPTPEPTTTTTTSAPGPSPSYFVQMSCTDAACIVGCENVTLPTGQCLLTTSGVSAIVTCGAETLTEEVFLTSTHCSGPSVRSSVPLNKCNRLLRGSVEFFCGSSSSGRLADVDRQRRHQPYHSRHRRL
# Assay: qHTS Assay for Promiscuous and Specific Inhibitors of Cruzain (without detergent); further: nearly all actives have a fitted effect of over 40% in size;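 on max response, negative = inhibition: plate controls were enzyme without inhibitor for no effect and buffer without enzyme for full effect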
# Details: purified cruzain, Z-FR-AMC fluorescence, no detergent
# Procedure, shortened: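 Purified cruzain at 1.5 nM, pre-incubated 15 min with compound at room temperature in 100 mM sodium acetate pH 5.5, 5 mM DTT, 0.00005% Triton X-100. Reaction started with 2 uM Z-FR-AMC; AMC fluorescence increase over 60 s gives rate.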
# Potency means the concentration at half of the fitted maximal effect; tags describe the fitted curve by direction and shape.
Compound,Potency,"max response, negative = inhibition"
COc1ccccc1N(CC(=O)NCCSCc1ccc(Cl)cc1)S(C)(=O)=O,"inconclusive: 39.8 µM [activator, single point]",–
COc1ccc(-c2cc(C(=O)N3CC4(C)CC3CC(C)(C)C4)no2)cc1OC (stereo not given),"inconclusive: 31.6 µM [activator, single point]",–
Cc1ccccc1CNC(=O)CCCn1nc(C)c2sc3ccccc3c2c1=O,active: 25.1 µM,–
S=C(NCC1CCCCC1)Nc1ccc(Oc2ccccc2)cc1,–,inactive: 2.73%
O=C(CSc1ccc(Cl)cc1)Nc1cccc(-c2nc3ccccc3[nH]2)c1,"inconclusive: 25.1 µM [inhibitor, single point]",–
COc1cccc(NC(CNS(=O)(=O)c2ccc(C)cc2)c2ccccc2)c1 (stereo not given),"inconclusive: 39.8 µM [inhibitor, single point]",–
Cc1[nH]nc2nc(SCC(=O)NCC3CCCO3)n(-c3ccc(Br)cc3)c(=N)c12 (stereo not given),"inconclusive: 39.8 µM [activator, single point]",–
O=C(Cn1nnc2sc3c(c2c1=O)CCCC3)Nc1ccc(F)c(Cl)c1,"inconclusive: 25.1 µM [inhibitor, single point]",–
COc1ccc(S(=O)(=O)NCCc2sc3nc(-c4ccc(C)cc4)nn3c2C)cc1C,"inconclusive: 31.6 µM [activator, single point]",–
CCCCNc1oc(-c2ccc(COc3ccccc3C)o2)nc1C#N,"inconclusive: 39.8 µM [inhibitor, single point]",–
Cc1ccccc1NC(=O)c1c(C)[nH]c(=S)c(C#N)c1-c1ccco1,–,inactive: 1.86%
CC(=O)c1cccc(NC(=O)Cc2ccc(NC(=O)N3CCCCc4ccccc43)cc2)c1,"inconclusive: 39.8 µM [inhibitor, single point]",–
COc1ccc(S(=O)(=O)N(CC(=O)NCCSc2ccccc2)c2ccc(C)cc2)cc1,–,inactive: -4.55%
COc1ccc(C2C(C(=O)Nc3cccc(C)n3)CCC(=O)N2c2ccc(OC)cc2)cc1 (stereo not given),"inconclusive: 39.8 µM [activator, single point]",–
O=C(NCc1ccc(F)cc1)c1cc2cccc3c2n1CCS3,–,inactive: -0.969%
CCCCOC(=O)Nc1nc2ccc(OC)cc2s1,"inconclusive: 15.8 µM [inhibitor, partial curve]",–
O=C(Nc1ccc(Br)cc1)/C(=C/c1cccc([N+](=O)[O-])c1)NC(=O)C1CCCCC1,–,inactive: -26.7%
COc1ccc(-n2c(CNc3ccc(C)cc3)nnc2SCC(=O)Nc2nc(-c3ccccc3)cs2)cc1,active: 6.31 µM,–
Cn1ccc2cc(NC(=O)Nc3cccnc3)ccc21,"inconclusive: 25.1 µM [inhibitor, partial curve, poor fit]",–
COc1ccc2cc3cc(C(=O)NCCN4CCN(Cc5ccccc5)CC4)oc3nc2c1,–,inactive: -29.9%
CC12CC(NC(=O)N1c1cccc(C(=O)N3CCN(c4ccccc4)CC3)c1)c1ccccc1O2 (stereo not given),"inconclusive: 25.1 µM [activator, partial curve]",–
O=C(c1cc(C2CC2)on1)N1CCN(c2ccccc2)CC1,–,inactive: -3.96%

Compound,Potency,"max response, negative = inhibition"
C=CCn1c(SCC(=O)Nc2cc(OC)c(NC(=O)c3ccco3)cc2OC)nnc1-c1ccncc1,"inconclusive: 39.8 µM [activator, single point]",–
Cc1ccc(C)c(NC(=O)C(Cc2ccccc2)n2cccc2)c1 (stereo not given),–,inactive: 3.51%
O=C(/C(=C(\[O-])c1ccccc1)[n+]1ccc2ccccc2c1)c1ccccc1,"inconclusive: 39.8 µM [inhibitor, single point]",–
Cc1cc(NC(=O)/C=C/c2ccc(Cl)cc2)no1,"inconclusive: 39.8 µM [inhibitor, single point]",–
CCN(CC)C(=O)CSc1ncnc2sc(-c3ccccc3)cc12,–,inconclusive: 105% [activator]
O=C(c1cc(-c2ccccc2O)on1)N1CCCC1,"inconclusive: 31.6 µM [inhibitor, single point]",–
COc1ccccc1CNC(=O)CCCCn1c(=O)c2ccccc2n(CC(=O)Nc2c(C)cc(C)cc2C)c1=O,–,inactive: -3.11%
CCOC(=O)N1CCN(C(=O)CSc2nnc(-c3ccc(C(C)(C)C)cc3)o2)CC1,"inconclusive: 31.6 µM [activator, single point]",–
Cc1ccc(C(=O)NCC(=O)OCC(=O)Nc2ncc(C(F)(F)F)cc2Cl)cc1,active: 6.31 µM,–
Nc1nonc1-c1nc2ccccc2n1Cc1ccccc1,–,inactive: -15.1%
Cc1cccc(C(=O)Nc2ccccc2-c2nnn(CC(=O)Nc3ccc4c(c3)OCCO4)n2)c1,"inconclusive: 39.8 µM [inhibitor, single point]",–
CS(=O)(=O)N(Cc1ccccc1)c1ccc(C(=O)NCc2cccnc2)cc1,–,inactive: -2.1%
Oc1[nH]c(=S)sc1/C=C1\C(c2ccccc2)=Nc2ccccc21,active: 25.1 µM,–
COc1cc(OC)c(NS(=O)(=O)c2c(C(=O)N3CCCCCC3)c(C)n(C)c2C)cc1Cl,"inconclusive: 31.6 µM [activator, single point]",–
Cc1ccc(N(C)C(=O)c2ccc3c(Cl)c4c(nc3c2)CCC4)cc1C,"inconclusive: 39.8 µM [activator, single point]",–
CCNc1ncc2nc(-c3ccccc3)c(=O)n(C3CC3)c2n1,"inconclusive: 6.31 µM [activator, partial curve]",–
CCOC(=O)N1CCc2c(sc(NCc3cccc(F)c3)c2C(=O)Nc2ccc(OC)cc2)C1,"inconclusive: 39.8 µM [activator, single point]",–
COc1ccccc1-c1nc(C#N)c(N2CCN(Cc3ccccc3)CC2)o1,–,inactive: -2.04%
Cc1cccc(Cn2c(=O)n(CCCC(=O)NCc3ccccc3Cl)c(=O)c3ccccc32)c1,–,inactive: 3.29%
COc1ccc(S(=O)(=O)NC(C)(C)C)cc1-c1nnc2c3ccccc3c(C)nn12,"inconclusive: 39.8 µM [activator, single point]",–
Fc1ccc(COc2ccccc2C(=S)N2CCCC2)cc1,"inconclusive: 1 µM [inhibitor, full curve, poor fit]",–
Cc1ccc(OCCN2CCN(C(=O)CCC(=O)Nc3nnc(C(C)C)s3)CC2)cc1,"inconclusive: 15.8 µM [activator, partial curve]",–

Compound,Potency,"max response, negative = inhibition"
CCNC(=S)N(Cc1ccc(OC)cc1)C1CC(=O)N(c2ccc(OCC)cc2)C1=O (stereo not given),"inconclusive: 25.1 µM [activator, single point]",–
CCOC(=O)c1ccccc1NC1c2ccccc2C(=O)N1C1CCN(C(=O)OCC)CC1 (stereo not given),"inconclusive: 39.8 µM [activator, single point]",–
C=CCn1c(C)cc(-c2csc(N)n2)c1C,"inconclusive: 39.8 µM [inhibitor, single point]",–
COC(=O)c1ccc(C(NC(=O)OCc2ccccc2)/C(F)=C/[C@@H](C)C(=O)NCc2cccnc2)cc1 (stereo not given in full),–,inactive: 27.4%
Cc1oc(-c2ccc(Cl)cc2)nc1CS(=O)CC(=O)NCCc1ccccc1 (stereo not given),"inconclusive: 31.6 µM [activator, single point]",–
CSc1ccc([C@H]2CN3CCC[C@H]3c3ccccc32)cc1,"inconclusive: 31.6 µM [inhibitor, single point]",–
CCC(=O)NC(NC(=S)Nc1ccccc1Br)C(Cl)(Cl)Cl (stereo not given),"inconclusive: 39.8 µM [inhibitor, single point]",–
O=C(N/N=C/c1ccc[nH]1)c1ccccc1[N+](=O)[O-],–,inactive: -10%
COc1ccc(Cl)cc1NC(=O)CCn1c(=O)c2cccn2c2ccccc21,–,inactive: 26.4%
COc1ccc(C(=O)Nc2ccc(Cl)c(S(=O)(=O)Nc3ccccc3OC)c2)cc1,"inconclusive: 39.8 µM [inhibitor, single point]",–
CCC(C(=O)Nc1ccc(C(C)C)cc1)n1nc(C)n2c(cc3cc(C)ccc32)c1=O (stereo not given),"inconclusive: 39.8 µM [inhibitor, single point]",–
O=C(Nc1ccc(-c2nc3ccccc3o2)cc1)c1cc(-n2cnnc2)ccc1Cl,"inconclusive: 39.8 µM [activator, single point]",–
COc1cc(/C=N/Nc2nc3ccccc3[nH]2)cc(OC)c1O,"inconclusive: 31.6 µM [inhibitor, single point]",–
COc1ccccc1CN1CCCC2(CCN(C(=O)c3cc(C(F)(F)F)cc(C(F)(F)F)c3)CC2)C1,–,inactive: -6.38%
Cc1cccc(NC(=O)Cn2nnc(C(=O)NCc3cccs3)c2N)c1,"inconclusive: 39.8 µM [inhibitor, single point]",–
COc1ccccc1NC(=O)CN(c1cc(C)cc(C)c1)S(=O)(=O)c1c(C)[nH]c(=O)[nH]c1=O,"inconclusive: 39.8 µM [activator, single point]",–
CC1=C(/C=N/Nc2ccc([N+](=O)[O-])cc2[N+](=O)[O-])C(C)(C)CCC1,"inconclusive: 7.94 µM [inhibitor, partial curve]",–
COc1cccc(Cn2c(Oc3cccc(C)c3)nc3c2c(=O)n(C)c(=O)n3C)c1,"inconclusive: 39.8 µM [activator, single point]",–
CCOC(=O)c1c(NC(=O)COc2ncnc3ccccc23)sc(C(C)=O)c1C,"inconclusive: 39.8 µM [activator, single point]",–
CCc1c(O)c(/C(C)=N\O)c(=O)n(-c2ccccc2)c1-c1ccccc1,"inconclusive: 39.8 µM [inhibitor, single point]",–
O=C1NC(=S)S/C1=C\c1ccc(SCc2ccco2)o1,"inconclusive: 12.6 µM [inhibitor, partial curve, poor fit]",–
